Results published in PubChem BioAssay AID1347165 (National Center for Advancing Translational Sciences (NCATS), 2019).
Hit rate of the full screen: of about 220,000 compounds, about 5,700 (2.6%) were called active. The inconclusive results got no clear call from the source; some entries with a clear call stand among them for comparison. Calls follow the shape of the dose curve; as a rule, active = well fitted inhibition curve with a large enough effect; inconclusive = small, poorly fitted or top-dose-only effect; inactive = no such curve, though single readings can be large or run the other way. A potency beside an inconclusive call is a rough fit, not a confirmed value.

These molecules were tested against Lysine-specific demethylase 5B (Homo sapiens) (UniProt Q9UGL1) (assay: Primary screen for KDM5B Histone Demethylases FDH-coupled qHTS). Details: FDH-coupled NADH fluorescence (FDH is formaldehyde dehydrogenase); activity change, negative = inhibition: at 57.7 µM (top of the series) unless noted.
Outline: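 Compound dilutions met 200 nM (final) KDM5BΔAP for 10 min at room temperature before substrate addition. The substrate mix held 12.5 µM H3K4me3 with cofactors 25 µM α-ketoglutarate and 50 µM Fe²⁺. NADH signal gain over 30 min defined activity.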
Also: nearly all actives have a fitted effect of over 70% in size.
For activity change, negative = inhibition in this document: 0% is about no effect.
Potency is read from the fitted curve at half-maximal effect; tags tell the direction and shape of the fitted curve.

Sequence of UniProt Q9UGL1 (Q9UGL1 whole entry, looked up): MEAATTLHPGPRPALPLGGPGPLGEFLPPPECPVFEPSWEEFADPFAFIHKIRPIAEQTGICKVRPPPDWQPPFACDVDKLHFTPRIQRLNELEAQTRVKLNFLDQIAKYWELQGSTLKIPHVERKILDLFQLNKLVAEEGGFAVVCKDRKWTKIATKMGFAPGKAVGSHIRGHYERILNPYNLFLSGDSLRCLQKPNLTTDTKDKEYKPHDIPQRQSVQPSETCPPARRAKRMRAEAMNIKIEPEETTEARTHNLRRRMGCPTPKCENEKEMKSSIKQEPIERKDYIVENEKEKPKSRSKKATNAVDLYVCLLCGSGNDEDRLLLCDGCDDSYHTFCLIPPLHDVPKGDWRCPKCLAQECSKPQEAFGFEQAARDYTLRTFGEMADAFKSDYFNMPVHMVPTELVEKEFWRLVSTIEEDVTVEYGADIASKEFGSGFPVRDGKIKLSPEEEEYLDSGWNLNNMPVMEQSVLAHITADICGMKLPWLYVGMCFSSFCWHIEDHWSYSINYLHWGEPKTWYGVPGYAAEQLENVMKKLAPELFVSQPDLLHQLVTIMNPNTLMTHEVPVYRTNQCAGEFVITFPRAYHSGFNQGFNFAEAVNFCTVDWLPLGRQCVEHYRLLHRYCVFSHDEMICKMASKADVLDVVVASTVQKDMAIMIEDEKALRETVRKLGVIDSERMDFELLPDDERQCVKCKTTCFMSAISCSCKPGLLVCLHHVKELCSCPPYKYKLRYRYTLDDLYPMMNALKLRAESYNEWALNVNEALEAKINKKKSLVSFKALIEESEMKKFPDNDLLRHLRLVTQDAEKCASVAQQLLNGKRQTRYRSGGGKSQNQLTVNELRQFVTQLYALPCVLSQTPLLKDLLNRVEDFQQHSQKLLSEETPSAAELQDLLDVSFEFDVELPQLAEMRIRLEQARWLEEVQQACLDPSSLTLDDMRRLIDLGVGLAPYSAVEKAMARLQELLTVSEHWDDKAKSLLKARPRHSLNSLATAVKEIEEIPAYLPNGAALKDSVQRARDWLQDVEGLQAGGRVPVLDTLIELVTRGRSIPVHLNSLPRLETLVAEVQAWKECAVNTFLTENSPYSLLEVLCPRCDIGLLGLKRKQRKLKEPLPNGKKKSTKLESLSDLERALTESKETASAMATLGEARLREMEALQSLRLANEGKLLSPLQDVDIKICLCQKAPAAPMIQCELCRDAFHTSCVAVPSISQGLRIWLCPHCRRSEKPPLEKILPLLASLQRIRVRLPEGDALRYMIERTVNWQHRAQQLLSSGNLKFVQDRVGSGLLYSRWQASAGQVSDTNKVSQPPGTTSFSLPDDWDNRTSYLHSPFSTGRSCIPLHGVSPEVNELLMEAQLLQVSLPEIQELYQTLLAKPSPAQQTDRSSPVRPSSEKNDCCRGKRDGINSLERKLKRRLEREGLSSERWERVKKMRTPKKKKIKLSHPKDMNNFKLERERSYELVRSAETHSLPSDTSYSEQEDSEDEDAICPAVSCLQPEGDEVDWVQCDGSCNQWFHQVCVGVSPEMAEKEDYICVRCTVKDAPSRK

Which Potency does the source give for Cc1ccsc1CN(C)CC(=O)NC(=O)NCc1ccccc1 here?
The Potency was “inactive”.

How did the Potency turn out when CCC(=O)Nc1cccc(-c2cn3cccc(C)c3n2)c1 was run?
The Potency was inconclusive: 28.2 µM [inhibitor, partial curve, poor fit].

Cc1cccc(NC(=O)CSc2ccc(-c3ccccn3)nn2)c1 was tested. Which Potency did it give?
Its Potency is inconclusive: 35.5 µM [inhibitor, single point].

With CSc1ccccc1NC(=O)c1ccc(CSc2ccccc2)cc1 as the molecule, how does the Potency read?
Its Potency is “inactive”.

Which Potency does the source give for CC(=O)c1ccc(NS(=O)(=O)c2cccc(S(=O)(=O)c3ccc(Cl)cc3)c2)cc1 here?
Its Potency is inconclusive: 1.26 µM [inhibitor, full curve, poor fit].

How did the Potency turn out when O=C(NC1CCN(c2cc(-c3cccs3)[nH]n2)CC1)c1cccc(OC(F)(F)F)c1 was run?
The Potency was inconclusive: 22.4 µM [inhibitor, single point].

COc1ccccc1-c1nnc(SCC(=O)N(C(C)C)C(C)C)n1N was tested. Which Potency did it give?
The Potency was “inactive”.

Which Potency does the source give for CSc1scc2c1-c1nc(SCC(=O)C(C)(C)C)ncc1CC2 here?
Its Potency is inconclusive: 28.2 µM [inhibitor, partial curve, poor fit].

N#Cc1nc(COc2cccc(Cl)c2)oc1NCc1ccc2c(c1)OCO2 was tested. Which Potency did it give?
Its Potency is “inactive”.

How did the Potency turn out when Cc1ccc(NC(=O)c2ccc3c(c2)N(C)C2CCCN2C3=O)cc1C (stereo not drawn) was run?
Its Potency is inconclusive: 28.2 µM [inhibitor, partial curve, poor fit].

Cc1nn(S(=O)(=O)c2ccc(Br)cc2)c(C)c1S(=O)(=O)N1CCCCCC1 was tested. Which Potency did it give?
The Potency was inconclusive: 39.8 µM [inhibitor, single point].

Which Potency does the source give for CCOC(=O)c1ccc(N2C(=O)c3n[nH]c(-c4ccco4)c3C2c2ccc(C)cc2)cc1 (stereo not drawn) here?
Its Potency is inconclusive: 10 µM [inhibitor, partial curve, poor fit].

CCc1cc(=O)oc2cc(OCC(=O)NCCCn3ccnc3)c(Cl)cc12 was tested. Which Potency did it give?
The Potency was inconclusive: 35.5 µM [inhibitor, partial curve, poor fit].

How did the Potency turn out when COc1ccc(CC(=O)N2CCc3cc(OC)c(OC)cc3C2COc2cc(C)cc(C)c2)cc1OC (stereo not drawn) was run?
The Potency was inconclusive: 35.5 µM [inhibitor, single point].

CC(C)CN1C(=O)c2ccccc2C(C(=O)Nc2ccccn2)C12CCCC2 (stereo not drawn) was tested. Which Potency did it give?
Its Potency is “inactive”.

How did the Potency turn out when CNC(=O)c1cccc(-c2cnc(Nc3ccc4c(c3)OCCO4)c3c2CCO3)c1 was run?
Its Potency is active: 39.8 µM.

CCN1c2cc(C(=O)NCc3ccc(F)cc3)ccc2C(=O)N2CCCCC21 (stereo not drawn) was tested. Which Potency did it give?
The Potency was inconclusive: 22.4 µM [inhibitor, partial curve, poor fit].

Which Potency does the source give for COc1ccc(CC(=O)N2[C@@H]3CC[C@H]2CC(NC(=O)c2cnc(C)cn2)C3)cc1 (stereo partly drawn) here?
Its Potency is “inactive”.

Which Potency does the source give for O=C(Nc1cccc(Cl)c1Cl)c1cc(S(=O)(=O)NCc2ccc3c(c2)OCO3)ccc1F here?
The Potency was inconclusive: 31.6 µM [inhibitor, partial curve, poor fit].

How did the Potency turn out when CN(Cc1ccccc1F)C1CCc2ccccc21 (stereo not drawn) was run?
The Potency was inconclusive: 31.6 µM [inhibitor, single point].

Which Potency does the source give for O=c1cc(CN2CCCn3nc(CO)cc3C2)nc2sc(C3CC3)nn12 here?
Its Potency is inconclusive: 14.1 µM [inhibitor, partial curve, poor fit].

With CCCC(=O)Nc1ccccc1OCc1cc(=O)n2cc(C)ccc2n1 as the molecule, how does the activity change, negative = inhibition read?
Its activity change, negative = inhibition is inconclusive: -47.8% [inhibitor].

For CCOC(=O)c1[nH]c2ccccc2c1NC(=O)C(C)N1CCC2(CC1)OCCO2 (stereo not drawn), which Potency is on record?
The Potency was inconclusive: 25.1 µM [inhibitor, partial curve, poor fit].

How did the Potency turn out when Cn1cccc1CN1CCC2CC(=O)NCCC2C1 (stereo not drawn) was run?
Its Potency is active: 100 µM.

With CC1C2CC(C/C2=N\NC(N)=S)C1(C)C (stereo not drawn) as the molecule, how does the Potency read?
Its Potency is inconclusive: 35.5 µM [inhibitor, partial curve, poor fit].

With CC1(c2ccccc2)CCCN(c2cncc(C(=O)N3CCOCC3)n2)C1 (stereo not drawn) as the molecule, how does the Potency read?
The Potency was inconclusive: 31.6 µM [inhibitor, partial curve].

With c1ccc(-c2c(SSc3c(-c4ccccn4)c(-c4ccccn4)n4ccccc34)c3ccccn3c2-c2ccccn2)nc1 as the molecule, how does the Potency read?
The Potency was inconclusive: 2.24 µM [inhibitor, full curve, poor fit].

How did the Potency turn out when O=C(c1cccc(Cl)c1)N1CCC2(CC1)N=C(c1cccc(Br)c1)NO2 was run?
Its Potency is inconclusive: 22.4 µM [inhibitor, single point].

c1ccc(-c2ccccc2Nc2cnc3ccc(N4CCOCC4)nn23)cc1 was tested. Which Potency did it give?
Its Potency is “inactive”.

CC(O)c1ccc(-c2ccc(CNC3CCCC3)o2)cc1 (stereo not drawn) was tested. Which Potency did it give?
The Potency was inconclusive: 22.4 µM [inhibitor, single point].

Which Potency does the source give for CCc1ccccc1NC(=O)Cn1c(N2CCOCC2)nc(COC)cc1=O here?
The Potency was inconclusive: 17.8 µM [inhibitor, partial curve, poor fit].

CSCCC(=O)NCCc1ccsc1 was tested. Which Potency did it give?
Its Potency is “inactive”.

For Cc1ccc(Sc2ncccc2Cl)cc1, which Potency is on record?
Its Potency is “inactive”.

How did the Potency turn out when O=C(NC1CCN(c2cc(-c3ccc(F)cc3)[nH]n2)C1)c1cccc(OC(F)(F)F)c1 (stereo not drawn) was run?
Its Potency is inconclusive: 12.6 µM [inhibitor, partial curve, poor fit].

How did the Potency turn out when Cc1ccc2c(C(=O)NCc3ccc(Cl)cc3)cnn2c1 was run?
The Potency was active: 35.5 µM.

With COc1ccc(CN2C[C@H]3CN(Cc4nccs4)CCN3C2=O)cc1 as the molecule, how does the Potency read?
The Potency was inconclusive: 35.5 µM [inhibitor, single point].

For CN(C)CCNc1ncnc2c1cnn2-c1cccc(Cl)c1, which Potency is on record?
Its Potency is inconclusive: 39.8 µM [inhibitor, single point].

For Cc1ccccc1Nc1c(-c2cccc(O)c2)nc2cnccn12, which Potency is on record?
Its Potency is inconclusive: 22.4 µM [inhibitor, partial curve, poor fit].

Which Potency does the source give for CCn1nc(C(=O)Nc2ccc(C)c(S(=O)(=O)N(C)C)c2)c2ccccc2c1=O here?
The Potency was “inactive”.

How did the Potency turn out when CC(Oc1ccc(/C=C(\C#N)C(N)=O)cc1)c1ccccc1 (stereo not drawn) was run?
The Potency was “inactive”.

For CCCCSc1nnc2c(n1)OC(c1ccc(Br)s1)N(C(C)=O)c1ccccc1-2 (stereo not drawn), which Potency is on record?
The Potency was inconclusive: 25.1 µM [inhibitor, partial curve, poor fit].

How did the Potency turn out when COc1ccc([S+](=O)([O-])c2nnn3c2nc(N2CCCCC2)c2ccccc23)cc1 was run?
The Potency was inconclusive: 56.2 µM [inhibitor, partial curve, poor fit].

With O=C(Nc1nc2n(n1)C(c1ccc(F)cc1)C=C(c1ccccc1)N2)c1ccco1 (stereo not drawn) as the molecule, how does the Potency read?
Its Potency is inconclusive: 31.6 µM [inhibitor, partial curve, poor fit].
